Test results published in the supplement of paper PMC3334620.
Whole data set: some 33,000 sequences, median “E-score (-0.5 to 0.5)” near -0.041, cut for the highest 2% near 0.37. The list shows a part of the results.

biological target: T1, Ecm22 (UniProt Q05958); assay: PBM E-score (8-mer binding enrichment) (E-score (-0.5 to 0.5)); higher = stronger / more preferred TF binding; most listed sequences are background and not binding sites; conditions: protein concentration: 200 nM; construct: GST-full length
T1 sequence: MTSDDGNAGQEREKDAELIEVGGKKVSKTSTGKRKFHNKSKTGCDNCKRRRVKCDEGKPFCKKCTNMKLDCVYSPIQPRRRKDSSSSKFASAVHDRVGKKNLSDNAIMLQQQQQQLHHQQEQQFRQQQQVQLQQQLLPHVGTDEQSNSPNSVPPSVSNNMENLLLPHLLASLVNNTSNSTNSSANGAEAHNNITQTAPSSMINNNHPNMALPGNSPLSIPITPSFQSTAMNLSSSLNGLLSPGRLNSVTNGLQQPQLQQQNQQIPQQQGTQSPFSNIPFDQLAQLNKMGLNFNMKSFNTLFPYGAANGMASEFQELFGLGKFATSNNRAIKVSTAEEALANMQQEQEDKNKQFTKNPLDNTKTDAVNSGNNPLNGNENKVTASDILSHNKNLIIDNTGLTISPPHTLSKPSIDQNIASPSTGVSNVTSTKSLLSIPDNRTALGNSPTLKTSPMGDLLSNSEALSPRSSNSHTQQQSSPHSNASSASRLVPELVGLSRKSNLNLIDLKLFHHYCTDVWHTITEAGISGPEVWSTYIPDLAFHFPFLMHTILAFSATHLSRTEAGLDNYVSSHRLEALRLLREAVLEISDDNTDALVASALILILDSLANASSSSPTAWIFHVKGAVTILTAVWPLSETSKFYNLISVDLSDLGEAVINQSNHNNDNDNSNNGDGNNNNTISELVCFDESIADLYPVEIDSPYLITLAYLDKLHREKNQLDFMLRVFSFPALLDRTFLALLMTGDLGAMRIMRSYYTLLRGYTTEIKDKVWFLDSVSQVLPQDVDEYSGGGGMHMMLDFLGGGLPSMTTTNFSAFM
Method in brief: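 Detection of bound protein used fluorescent anti-GST, with scans normalised by masliner. The proteins were GST-tagged yeast transcription factors applied at about 100-200 nM to universal all-10-mer Agilent arrays made double-stranded by primer extension. Each ungapped eight-base word, pooled with its reverse complement, was scored with an E-score from the Universal PBM Analysis Suite.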

Sequence | PBM E-score
CCTACTCG | 0.0958
AGGTATGG | -0.0938
CATAACGG | -0.177
GACCTAGA | -0.0841
CGCGTTAC | 0.159
TTCTAAAA | -0.00887
GTTAAAAC | 0.11
CATTTCCC | -0.00773
ATAATGCC | -0.0529
TACTCTGA | -0.132
CGTCCTAA | -0.236
GCGTGCAC | -0.11
GGAGACCA | -0.269
CCCTGCTC | -0.219
CTGCGTGC | 0.00733
CTCTAGGC | -0.197
CCGGACGG | -0.168
CGCCCTTA | -0.175
CACTGATC | -0.258
CCTGAAAC | 0.0188
CATATTCA | 0.0456
AGGGTGAA | -0.0566
CGGCATGA | 0.109
CTTTACCC | 0.0391
ACAACCGG | -0.0513

Sequence | PBM E-score
GACGTCTA | -0.23
CATTTGCC | -0.175
ATACTGTA | 0.177
TTCTGAAA | -0.196
AGGCGCAC | -0.0776
CGAGTACC | 0.21
CACTTCAA | -0.139
AATGATAC | 0.186
GGAGGTTA | -0.135
AGAAGGGA | -0.396
GGAAGGGA | -0.172
ACGGCCGC | 0.186
AAACAACT | -0.152
CACCTCCC | -0.215
AAATTAGC | 0.172
CGGTCAGC | -0.0305
AAAGAGGA | -0.13
GCCGAGCA | -0.0367
GTATATCA | 0.276
AGGTAGCA | -0.181
CGAAGCCG | 0.053
ACATGCTA | -0.144
CTAATTAC | -0.0138
GGTAATAA | 0.121
AGAGTCAA | -0.31

Sequence | PBM E-score
AGCAATAT | -0.0272
CTTGTGGA | -0.292
ATGTACGG | 0.365
CATGGGAA | -0.00264
AAGGAGAC | -0.336
CGCGTTTA | 0.342
CGAAGTCG | 0.254
ACCATAGG | -0.0448
GAGTTAGA | -0.157
AATAAAAA | -0.00527
GATGGTAA | -0.0663
GACAGAGA | 0.0187
CGACGTCG | 0.281
AGTTGGCG | -0.0829
GATTATCA | 0.0403
CCGATGCG | 0.0233
GGCTTGGA | -0.243
CGGTACGA | 0.492
ACCCATTA | 0.124
GCGTATCC | 0.142
GTGCTTGA | 0.0697
CGAACACG | 0.183
CCCACGCG | -0.157
AAGGGGCT | -0.186
CAAGTGTG | -0.263

Sequence | PBM E-score
AATTGCCG | 0.0407
ACTCCCCG | 0.0543
GGCGGACA | -0.0355
GCCAGTTA | 0.0769
AGTCGTAT | 0.46
CTTAAATA | -0.153
CGACCCTA | 0.0571
GGTGACCA | -0.103
CCTAATCC | -0.275
AATAAATC | -0.0573
GATAAGGC | -0.0542
AAAAGGCG | -0.052
GAGTTGAA | 0.04
GTCCCCTA | -0.313
CATACGAA | 0.451
CTTCCCGC | 0.0351
AGTGAACT | -0.132
ACCCATCA | -0.0127
AGGGCCCA | -0.227
AACTGGCT | -0.262
CGAAGGCC | 0.0747
AGAGCGGG | -0.173
CAGAGCAC | -0.061
GGGGGCAC | -0.232
GATCTGGC | -0.0579

Sequence | PBM E-score
ATCGGTGG | 0.0574
ATCCGATG | 0.176
ATTCACAA | -0.156
ACTAAAGG | -0.092
CCCCTTCC | -0.299
CGCACGCG | 0.0181
GAATGGGC | -0.0261
CGCAAAAG | -0.0689
TATTGCAA | 0.112
CGTACCTA | 0.441
AGGGGAAT | -0.219
GGAAGCAC | 0.0273
CATATCCC | -0.036
CGACTCAC | -0.0226
CTTAGAGA | -0.0992
CTAGAGAA | -0.00522
AACCTCAG | -0.0346
TACCAGGA | 0.0186
AAGCAAGG | -0.0358
ATGTAGCA | -0.0443
TAAAGTCA | -0.0121
CAAAAGAC | -0.154
CAAGGCCC | -0.184
AGAATCGG | 0.0286
ACTATATG | 0.16

Sequence | PBM E-score
TTAGTGAA | 0.0168
GAGGATGC | -0.0188
GATGCCCA | -0.0888
CTCGCTCA | 0.358
GCATATAA | 0.195
ATCGGATA | 0.301
CTGCCTTA | -0.302
CACATTGC | -0.235
CTGGCGCC | -0.0799
CACCCTAC | -0.0599
CGTGATCC | -0.153
CTGAGCTC | -0.2
CCCTAAAG | -0.123
CGGGGAGA | -0.115
CGTAGAAG | 0.214
GGTTTGAC | 0.115
ATACGTGG | 0.196
TAAATCCA | 0.13
CTTCATTC | -0.0928
ATATCTGG | -0.189
ACTACGAC | 0.329
CTCCGCAG | -0.0934
AAAATCTC | -0.0615
CTTCGAGC | -0.0794
CTGACCAC | -0.228

Sequence | PBM E-score
GCCAAGAC | -0.218
ATTCGCCA | -0.0226
TATTGTAA | -0.0855
TCACCTCA | -0.159
CGGCTCAA | -0.217
AGGCCTCC | -0.206
ATTGGCTG | -0.227
GGATTCAC | -0.106
GCTAACCA | -0.146
AGCCCTAG | -0.334
CATTAAAA | -0.00173
ATGCTAAT | 0.0728
CGTGATGA | -0.0666
GAGCTTAC | 0.00868
AAGTCGCT | 0.053
GGAGGCCC | -0.227
CGCCGGGC | -0.093
CCCGGGGC | -0.0902
ATGTACAC | -0.00463
CACGCGGA | -0.00262
GAACCATC | 0.0147
CCCTGACG | -0.253
